{"source": "paper PMC4336329", "about": "(PLoS ONE, 2015)", "note": "About 14,000 (4.5%) of roughly 310,000 compounds showed an effect of 50% or more. Effects have a minus sign here. Some of the results follow.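 Also: peak tail current of the secondary pulse compared with the same well before compound.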", "data": [{"biological_target": "human ether-à-go-go-related gene (hERG) potassium channel (human, UniProt Q12809)", "sequence (Q12809 whole entry, looked up)": "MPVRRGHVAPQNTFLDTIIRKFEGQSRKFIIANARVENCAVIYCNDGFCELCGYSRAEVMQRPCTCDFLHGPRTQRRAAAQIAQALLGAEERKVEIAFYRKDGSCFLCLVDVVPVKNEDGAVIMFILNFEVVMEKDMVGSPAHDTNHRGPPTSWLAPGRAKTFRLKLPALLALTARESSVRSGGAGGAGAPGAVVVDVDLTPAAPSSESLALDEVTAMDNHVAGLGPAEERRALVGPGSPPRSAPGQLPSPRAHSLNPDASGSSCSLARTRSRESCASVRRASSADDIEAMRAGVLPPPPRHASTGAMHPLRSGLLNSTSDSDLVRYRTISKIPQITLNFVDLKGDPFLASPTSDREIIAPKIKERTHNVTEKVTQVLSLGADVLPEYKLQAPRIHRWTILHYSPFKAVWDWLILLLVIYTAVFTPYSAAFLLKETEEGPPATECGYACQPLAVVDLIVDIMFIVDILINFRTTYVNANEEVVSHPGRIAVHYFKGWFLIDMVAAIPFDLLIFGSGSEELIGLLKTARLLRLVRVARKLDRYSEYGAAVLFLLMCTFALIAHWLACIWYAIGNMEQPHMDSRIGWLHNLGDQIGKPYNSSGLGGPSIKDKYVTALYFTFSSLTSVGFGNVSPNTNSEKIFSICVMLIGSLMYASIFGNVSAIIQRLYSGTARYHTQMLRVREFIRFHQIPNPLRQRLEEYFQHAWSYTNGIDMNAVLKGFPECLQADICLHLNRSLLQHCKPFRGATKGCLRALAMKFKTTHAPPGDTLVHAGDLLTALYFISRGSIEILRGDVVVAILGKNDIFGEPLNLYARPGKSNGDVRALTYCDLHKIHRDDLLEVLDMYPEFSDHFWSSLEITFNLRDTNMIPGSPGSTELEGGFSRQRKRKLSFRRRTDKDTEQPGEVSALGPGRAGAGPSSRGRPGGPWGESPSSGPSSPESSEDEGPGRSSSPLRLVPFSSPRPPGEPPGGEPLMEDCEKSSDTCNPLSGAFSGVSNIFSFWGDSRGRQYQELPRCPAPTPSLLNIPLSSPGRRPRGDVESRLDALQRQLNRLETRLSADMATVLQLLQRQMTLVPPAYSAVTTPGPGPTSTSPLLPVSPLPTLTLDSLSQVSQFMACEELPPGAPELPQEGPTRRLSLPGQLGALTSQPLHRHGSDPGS", "experiment": "primary screen, population patch clamp on CHO cells stably expressing hERG", "units": {"hERG current change (%, negative = inhibition) at 10uM": "%"}, "values": [{"smiles": "CCn1c(SCC(=O)Nc2ccccc2C(=O)OC)nnc1-c1cccc(C)c1", "hERG current change (%, negative = inhibition) at 10uM": -36.2}, {"smiles": "OC1CCN(Cc2cn(Cc3ccccc3)nc2-c2cc3ccccc3o2)CC1", "hERG current change (%, negative = inhibition) at 10uM": -50.7}, {"smiles": "O=C(O)C1CSC(c2coc3ccccc3c2=O)N1", "note": "(centres unmarked)", "hERG current change (%, negative = inhibition) at 10uM": 7.24}, {"smiles": "CCOC(=O)c1ccc(N2C(=O)CC(C3CCCO3)C2=O)cc1", "note": "(centres unmarked)", "hERG current change (%, negative = inhibition) at 10uM": -11.2}, {"smiles": "COc1ccc(C2=NS(=O)(=O)N(C)C(C(=O)NCc3cccs3)=C2)cc1OC", "hERG current change (%, negative = inhibition) at 10uM": -53.9}, {"smiles": "Cc1ccc(CNC(=O)C2CCCN2S(=O)(=O)c2ccc(F)cc2)cc1", "note": "(centres unmarked)", "hERG current change (%, negative = inhibition) at 10uM": 0.876}, {"smiles": "Cc1cccc(C(C(=O)NC2CCCCC2)N(Cc2cccnc2)C(=O)c2csnn2)c1", "note": "(centres unmarked)", "hERG current change (%, negative = inhibition) at 10uM": -1.78}, {"smiles": "Cc1cnc(NC(=O)CSc2ncn(-c3ccccc3)n2)s1", "hERG current change (%, negative = inhibition) at 10uM": -12.9}, {"smiles": "O=C(Nc1ccc(F)cc1)C1C(c2ccccc2)C1(Cl)Cl", "note": "(centres unmarked)", "hERG current change (%, negative = inhibition) at 10uM": -8.21}, {"smiles": "Cc1ccc(S(=O)(=O)N2CCC(C(=O)OCC(=O)N(C)C3CCCCC3)CC2)cc1C", "hERG current change (%, negative = inhibition) at 10uM": -12.1}, {"smiles": "CC1CCC(NC(=O)C2CCC(CNS(=O)(=O)c3ccccc3)CC2)CC1", "note": "(centres unmarked)", "hERG current change (%, negative = inhibition) at 10uM": 22.1}, {"smiles": "CNc1ccccc1C(C)(C)c1cc(-c2ccco2)n[nH]1", "hERG current change (%, negative = inhibition) at 10uM": -9.17}, {"smiles": "CS(=O)(=O)c1ccc(-c2cccc(NC(=O)COc3ccc(Cl)cc3)c2)nn1", "hERG current change (%, negative = inhibition) at 10uM": 6.7}, {"smiles": "COc1cc(Cl)c(C)cc1NC(=O)CC1CCCC1", "hERG current change (%, negative = inhibition) at 10uM": 2.62}, {"smiles": "Cc1c(C(=O)NCc2ccccn2)oc2ccc(S(=O)(=O)N3CCOCC3)cc12", "hERG current change (%, negative = inhibition) at 10uM": -7.04}, {"smiles": "Cc1ccc(-n2[nH]c(C)c(CCC#N)c2=O)cc1", "hERG current change (%, negative = inhibition) at 10uM": 2.48}, {"smiles": "O=S(=O)(Nc1ccc2c3c(cccc13)CC2)c1ccc(F)cc1", "hERG current change (%, negative = inhibition) at 10uM": -3.9}, {"smiles": "CSc1ncccc1C(=O)OCC(=O)NC1CCCCC1", "hERG current change (%, negative = inhibition) at 10uM": -4.1}, {"smiles": "CC(=O)c1c(C)[nH]c(C(=O)N2CCc3ccccc32)c1C", "hERG current change (%, negative = inhibition) at 10uM": 9.47}, {"smiles": "N/C(=N\\OC(=O)c1ccccc1)c1cccnc1", "hERG current change (%, negative = inhibition) at 10uM": 29.9}, {"smiles": "Cc1ccc(-n2nnnc2CNC(=O)c2ccc3c(c2)OCO3)cc1C", "hERG current change (%, negative = inhibition) at 10uM": 12.3}, {"smiles": "O=C(Nc1ccc2c(c1)OCO2)C1CC(c2cccc(Br)c2)=NO1", "note": "(centres unmarked)", "hERG current change (%, negative = inhibition) at 10uM": -3.43}, {"smiles": "CC1CCCC(NC(=O)c2cccc(S(=O)(=O)NCc3ccccc3)c2)C1C", "note": "(centres unmarked)", "hERG current change (%, negative = inhibition) at 10uM": -25.3}, {"smiles": "Cl.O=C(NCCN1CCOCC1)c1cc2ccccc2o1", "hERG current change (%, negative = inhibition) at 10uM": 2.42}, {"smiles": "O=[N+]([O-])c1ccc(S(=O)(=O)Nc2ccc(-c3csc(-c4ccccc4)n3)cc2)cc1", "hERG current change (%, negative = inhibition) at 10uM": 13.7}, {"smiles": "COc1ccccc1OCc1nnc(SCC(=O)Nc2nnc(C3CC3)s2)n1C", "hERG current change (%, negative = inhibition) at 10uM": 17.7}, {"smiles": "CC(C)CN1C(=O)/C(=C(/C#N)C(=O)NC2CCCCC2)c2ccccc21", "hERG current change (%, negative = inhibition) at 10uM": 10.3}, {"smiles": "Cc1ccccc1OCC(=O)Nc1ccc2[nH]ncc2c1", "hERG current change (%, negative = inhibition) at 10uM": -3.56}, {"smiles": "CCOc1ccc(NC(=O)COc2ccccc2C(=O)NCc2ccccc2)cc1", "hERG current change (%, negative = inhibition) at 10uM": -22.9}, {"smiles": "Cn1c(CSCc2ccccc2)nnc1SCC(=O)Nc1ccc(C(=O)O)cc1", "hERG current change (%, negative = inhibition) at 10uM": 4.3}, {"smiles": "CCOc1ccccc1NS(=O)(=O)c1ccc2[nH]c(=O)ccc2c1", "hERG current change (%, negative = inhibition) at 10uM": -13.7}, {"smiles": "CCOC(=O)Cc1cc(=O)n2[nH]cc(-c3cccc(Br)c3)c2n1", "hERG current change (%, negative = inhibition) at 10uM": 35.6}, {"smiles": "COc1ccc(C(C(=O)NCC2CCCO2)N(C(=O)Cn2nnc3ccccc32)c2ccc(NC(C)=O)cc2)cc1OC", "note": "(centres unmarked)", "hERG current change (%, negative = inhibition) at 10uM": 16.7}, {"smiles": "Cc1cc(C)c(S(=O)(=O)N2CCCC(C(=O)N3CCOCC3)C2)c(C)c1", "note": "(centres unmarked)", "hERG current change (%, negative = inhibition) at 10uM": -17.7}, {"smiles": "CCOc1ccc(CCNC(=O)C2CC(C)=CCC2C(=O)O)cc1OCC", "note": "(centres unmarked)", "hERG current change (%, negative = inhibition) at 10uM": 19.2}, {"smiles": "CN1C(=O)c2ccc(C(=O)NCc3ccc4c(c3)OCO4)cc2C1=O", "hERG current change (%, negative = inhibition) at 10uM": -15.7}, {"smiles": "COc1ccccc1C(=O)Nc1ccc(S(=O)(=O)N(C)c2ccccc2)cc1", "hERG current change (%, negative = inhibition) at 10uM": 7.19}, {"smiles": "CCCCCc1ccc(CC(=O)Nn2c(C)nc3ccccc3c2=O)cc1", "hERG current change (%, negative = inhibition) at 10uM": -16.9}, {"smiles": "CC12CC3CC(C)(C1)CC(C(=O)N1CCN(C(=O)C4CCCO4)CC1)(C3)C2", "note": "(centres unmarked)", "hERG current change (%, negative = inhibition) at 10uM": 13.4}, {"smiles": "CCOC(=O)c1c(NC(=O)CSc2ncn[nH]2)sc(C(=O)NC)c1C", "hERG current change (%, negative = inhibition) at 10uM": -7.99}, {"smiles": "CCOc1cc(C(=O)NCC(=O)N/N=C/c2sccc2C)cc(OCC)c1OCC", "hERG current change (%, negative = inhibition) at 10uM": 3.96}, {"smiles": "CCN1CCN(C(=O)c2ccc3c(c2)N(Cc2ccccc2)C(=O)c2ccccc2S3(=O)=O)CC1", "hERG current change (%, negative = inhibition) at 10uM": 3.91}, {"smiles": "N/C(=N\\OC(=O)c1ccc(Cl)cc1)c1nonc1N", "hERG current change (%, negative = inhibition) at 10uM": 15.5}, {"smiles": "O=C(COC(=O)c1ccc(S(=O)(=O)NCc2ccco2)cc1)NC1CCCCCC1", "hERG current change (%, negative = inhibition) at 10uM": -1.42}, {"smiles": "CCN(CC)CCNC(=O)c1ccc2c(=O)n(C3CCCC3)c(=S)[nH]c2c1", "hERG current change (%, negative = inhibition) at 10uM": -42.8}, {"smiles": "O=C(c1ccccc1[N+](=O)[O-])N1CCC2(CC1)OCCO2", "hERG current change (%, negative = inhibition) at 10uM": 3.53}, {"smiles": "Cc1cc(NS(=O)(=O)c2ccc(NC(=O)Nc3ccccc3)cc2)no1", "hERG current change (%, negative = inhibition) at 10uM": -5.51}, {"smiles": "c1ncn(C23CC4CC(CC(C4)C2)C3)n1", "hERG current change (%, negative = inhibition) at 10uM": 24.7}, {"smiles": "CCc1ccc(NC(=O)C2CCCN(S(=O)(=O)c3ccc4[nH]c(=O)ccc4c3)C2)cc1", "note": "(centres unmarked)", "hERG current change (%, negative = inhibition) at 10uM": 13.8}, {"smiles": "COC(=O)CCCC1=CC2=CC(=O)C(C)(OC(=O)c3ccco3)C(=O)C2=CO1", "note": "(centres unmarked)", "hERG current change (%, negative = inhibition) at 10uM": 0.0796}, {"smiles": "CC(C)(C)c1ccc(C2(C)NC(=O)N(CC(=O)Nc3ccc4c(c3)OCO4)C2=O)cc1", "note": "(centres unmarked)", "hERG current change (%, negative = inhibition) at 10uM": 0.52}, {"smiles": "c1ccc(Oc2ccc(-c3ccnc4ncnn34)cc2)cc1", "hERG current change (%, negative = inhibition) at 10uM": 10.7}, {"smiles": "Cc1ccnc(NC(=O)c2sc3cc(Cl)ccc3c2Cl)c1", "hERG current change (%, negative = inhibition) at 10uM": 15}, {"smiles": "COc1cccc(NC(=O)Nc2cccs2)c1", "hERG current change (%, negative = inhibition) at 10uM": 1.52}, {"smiles": "CCCn1c(=N)c(S(=O)(=O)c2ccc(F)cc2)cc2c(=O)n3cccc(C)c3nc21", "hERG current change (%, negative = inhibition) at 10uM": -4.16}, {"smiles": "CC1=CC(C)(C)NC(=S)N1c1ccccc1C", "hERG current change (%, negative = inhibition) at 10uM": -3.76}]}]}
